Values joined by “and” are separate entries in the source; they are usually repeats but may differ in a detail not shown here. Identical values can stand only once. Screen size: about 420,000 compounds; about 50,000 (12%) were called active. The shares of active, inactive and inconclusive entries below differ from those in the screen. The call rests on the fitted dose curve; in most records, active means well fitted inhibition curve with a large enough effect; inconclusive means small, poorly fitted or top-dose-only effect; inactive means flat fitted curve, though single readings scatter. Potencies beside an inconclusive call are fits to weak or partial responses and may not hold up.
Assay: qHTS for Inhibitors of human tyrosyl-DNA phosphodiesterase 1 (TDP1): qHTS in cells in presence of CPT; further: nearly all actives have a fitted effect of over 55% in size
Details: chicken DT40 Tdp1-/-;hTDP1 cells + 20 nM CPT, ATP luminescence, 48 h; activity change, negative = growth inhibition: at 46.2 µM (top of the series)
In short: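 Chicken DT40 Tdp1-/- cells stably complemented with human TDP1 were seeded at 400 cells/well in medium containing 20 nM camptothecin, exposed to pin-transferred compounds, and grown at 37 °C for at least 48 hr. Viability was read as ATP luminescence.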
With COc1ccc(/C=C2\N=C(C)OC2=O)cc1[N+](=O)[O-] the Potency was inconclusive: 20.6 µM [inhibitor, single point]. In the case of CCOc1ccc(N(CC)C(=O)c2nn(-c3ccc(OC)cc3)c(=O)c3c2c2ccccc2n3C)cc1, the Potency is reported as “inactive and inconclusive: 29.1 µM [inhibitor, single point]”. In the case of CCCCOC(=O)Nc1sc2c(c1C(=O)OC)CCC2, the “activity change, negative = growth inhibition” value is reported as inactive: 8.81%. For CC(=O)OCCN(CCCn1c(-c2ccncc2)nc2ccccc21)c1nc(-c2ccc(C)cc2)cs1, the Potency was inconclusive: 23.1 µM [inhibitor, partial curve]. With Cc1ccc(/C=N/NC(=O)c2cc3ccccc3cc2O)o1 the Potency was inconclusive: 25.9 µM [inhibitor, partial curve]. In the case of CC(NC(=O)CCn1c(=S)[nH]c2ccsc2c1=O)c1ccccc1 (stereo unspecified), the “activity change, negative = growth inhibition” value is reported as inactive: -3.99%. In the case of CCOC(=O)c1cc2sccc2n1CC(=O)N1c2ccccc2CC1C (stereo unspecified), the Potency is reported as active: 18.4 µM. With CCc1sc(C(=O)Nc2ccccc2N2CCOCC2)cc1C the Potency was active: 23.1 µM. In the case of COc1ccc(NC(=O)c2cc(C3CCCCN3C(=O)OCc3ccccc3)on2)c(C)c1 (stereo unspecified), the Potency is reported as inconclusive: 29.1 µM [inhibitor, single point]. For CCn1c(SCC(N)=O)nnc1-c1ccco1, the activity change, negative = growth inhibition was inconclusive: 4.82% [inhibitor]. With C/C(=N\NC(=O)c1ccc(Cl)cc1)c1ccccn1 the Potency was active: 0.58 µM. For Cc1ccc(NC(=O)C2CC(=O)N(Cc3ccccc3)C2)cc1S(=O)(=O)N1CCCCCC1 (stereo unspecified), the Potency was active: 29.1 µM. For CC(=O)N1CCC(C(=O)Nc2ccc(S(=O)(=O)NCCc3ccccc3)cc2)CC1, the “activity change, negative = growth inhibition” value was inactive: -2.59%. For CCc1ccc(C(=O)N2CCC(c3nc(-c4ccc(S(=O)(=O)N5CCCC5)cc4)no3)CC2)cc1, the Potency was inconclusive: 29.1 µM [inhibitor, single point]. In the case of O=c1c(C(c2ccccc2)c2c(O)sc3ccccc3c2=O)c(O)sc2ccccc12, the “activity change, negative = growth inhibition” value is reported as inactive: -8.5%. In the case of CCCCS(=O)CC(COc1ccc(Cl)cc1)OC(=O)c1ccccc1 (stereo unspecified), the Potency is reported as inconclusive: 35.5 µM [inhibitor, single point]. With CC(C)(C)C(=O)NNC(=O)C1CC1(c1ccccc1)c1ccccc1 (stereo unspecified) the “activity change, negative = growth inhibition” value was inactive: -1.15%. In the case of COc1ccc(Cn2c(C(C)C)nc3sc4ccccc4c(=O)c3c2=O)cc1, the Potency is reported as inconclusive: 20.6 µM [inhibitor, single point]. In the case of CCCOc1ccc(-c2nc3c(c(=O)[nH]c(=O)n3Cc3ccccc3)n2CCO)cc1OCC, the Potency is reported as inconclusive: 16.4 µM [inhibitor, single point]. With COc1cccc(CNc2nc(NCC3CC3)nc3ccsc23)c1OC the Potency was active: 9.2 µM. With O=S(Cc1ccc(Cl)cc1)c1ccccc1 (stereo unspecified) the “activity change, negative = growth inhibition” value was inactive: -0.569%. For COc1cc(CNc2nc(C)c([N+](=O)[O-])c(C)c2C#N)cc(OC)c1OC, the Potency was active: 20.6 µM. With CCc1ccc(Cn2nnc(C(=O)Nc3ccc(OC)cc3OC)c2N)cc1 the “activity change, negative = growth inhibition” value was inactive: 2.47%. For COc1ccc(CCN2C(=O)CC(Cc3ccc(C)cc3)C2=O)cc1OC (stereo unspecified), the Potency was inconclusive: 20.6 µM [inhibitor, single point]. In the case of CC1CN(CCOc2ccccc2C(C)C)CC(C)O1 (stereo unspecified), the “activity change, negative = growth inhibition” value is reported as inactive: -26.3%. In the case of COCCOC(=O)C1=C(C)NC(C)=C(C(=O)OC(C)C)[C@@H]1c1cccc([N+](=O)[O-])c1, the Potency is reported as inconclusive: 33.5 µM [inhibitor, single point]. For COc1cc(Cl)c(C)cc1NC(=O)Cn1ncc2c1-c1cc(C)ccc1OC2, the Potency was inconclusive: 23.1 µM [inhibitor, partial curve, poor fit]. In the case of CCCSc1ncc(Cl)c(C(=O)Nc2c(C(=O)Nc3ccc(OC)cc3)oc3ccccc23)n1, the Potency is reported as inconclusive: 20.6 µM [inhibitor, single point]. With Cc1ccccc1NC(=O)COC(=O)[C@@H]1CCCN1C(=O)c1cccs1 the “activity change, negative = growth inhibition” value was inactive: -4.35%. In the case of CSc1nc2cc(S(=O)(=O)N3CCCCC3)ccc2s1, the Potency is reported as inconclusive: 18.4 µM [inhibitor, single point]. For O=S(=O)(c1ccc(Br)cc1)c1nnn2c1nc(NCc1ccc3c(c1)OCO3)c1sccc12, the Potency was inconclusive: 20.6 µM [inhibitor, single point]. In the case of CCOC(=O)N/N=C(\CCC(=O)O)c1cccs1, the “activity change, negative = growth inhibition” value is reported as inactive: -1.73%. In the case of Cc1cccc(CNC(=O)c2ccc3oc(=O)n(Cc4ccccc4)c3c2)c1, the Potency is reported as inconclusive: 23.1 µM [inhibitor, single point]. For CC1CCCCN1S(=O)(=O)c1ccc(S(=O)(=O)N2CCN(c3ccccc3)CC2)cc1 (stereo unspecified), the Potency was inconclusive: 29.1 µM [inhibitor, single point]. In the case of COc1ccc([C@@H]2[C@@H]3C(=O)N(C(C)(C)C)C(=O)[C@@H]3[C@]3(Cc4ccc(Cl)cc4)C(=O)N(c4cccc(C)c4)C(=O)N23)cc1, the “activity change, negative = growth inhibition” value is reported as inactive: -21.9%. For O=C1C(Cl)=C(NCCN2CCOCC2)C(=O)c2ccccc21, the Potency was inconclusive: 29.1 µM [inhibitor, single point]. With COc1ccc(NC(=O)COC(=O)CN2C(=O)c3ccccc3C2=O)cc1 the “activity change, negative = growth inhibition” value was inactive: -12.4%. In the case of Cc1cccc(N(Cc2cc3cc(C)ccc3[nH]c2=O)C(=O)c2cccs2)c1, the Potency is reported as inconclusive: 20.6 µM [inhibitor, single point]. With CCOC(=O)CCCNC(=O)c1cncc(Br)c1 the “activity change, negative = growth inhibition” value was inactive: 16.3%. With CC1(C(=O)Nc2cccc(Oc3ccccc3)c2)Cc2c(-c3ccc4c(c3)OCO4)ccnc2O1 (stereo unspecified) the Potency was inconclusive: 20.6 µM [inhibitor, single point]. In the case of O=C(Nc1c2c(nn1-c1ccccc1)CS(=O)(=O)C2)c1ccccc1C(F)(F)F, the “activity change, negative = growth inhibition” value is reported as inactive: -2.93%. For CC1C(=O)NN=C1C(=O)N/N=C\C(Br)=C\c1ccccc1 (stereo unspecified), the Potency was active: 6.51 µM. With COC(=O)C(C)N(C(=O)c1cccc2ccccc12)c1c(C)cccc1C (stereo unspecified) the Potency was inconclusive: 29.1 µM [inhibitor, single point]. With COC(=O)c1ccc(Cn2nnc3c(=O)[nH]c(C4CCN(S(=O)(=O)c5ccc(F)cc5)CC4)nc32)cc1 the “activity change, negative = growth inhibition” value was inactive: -0.489%. In the case of O=C(O)[C@@H]1CCCN(S(=O)(=O)c2cccc3cccnc23)C1, the “activity change, negative = growth inhibition” value is reported as inactive: 32.9%. For C/C(CC(=O)NCCN1CCOCC1)=N\NC(=O)c1ccncc1, the “activity change, negative = growth inhibition” value was inactive: 6.36%. With Cc1cc(C)cc(NC(=O)CSc2oc(-c3ccco3)nc2S(=O)(=O)c2ccc(Cl)cc2)c1 the Potency was active: 23.1 µM. For COC(=O)c1sc2ccccc2c1NC(=O)c1ccc(S(=O)(=O)N2CCCCC2)cc1, the “activity change, negative = growth inhibition” value was inactive: -11.1%. With O=C1NN(c2cccc(Br)c2)C(=O)/C1=C/c1ccc(-c2cc([N+](=O)[O-])ccc2O)o1 the “activity change, negative = growth inhibition” value was inactive: 0.792%. With CCOC(=O)N1CCN(c2cc(=O)n(-c3cccc(C)c3)c(=O)[nH]2)CC1 the “activity change, negative = growth inhibition” value was inactive: 0.663%. With O=C(Nc1ccc2ccccc2c1)c1nc(S(=O)(=O)Cc2ccccc2F)ncc1Cl the Potency was active: 0.708 µM. With COc1ccc(CS(=O)(=O)/C(Cl)=C(/Cl)C(=O)Nc2ccc(OC)nc2)cc1 the Potency was active: 0.58 µM. With COCCCNC(=O)CC1C[C@H](C(=O)N(C(C)C)C(C)C)[C@@]2(C)c3[nH]c4ccccc4c3CCN2C1=O (stereo partly specified) the “activity change, negative = growth inhibition” value was inactive: -37.9%. For COc1ccc(Cl)cc1NC(=O)C1CCN(S(=O)(=O)c2ccc3c(c2)CC(C)N3C(C)=O)CC1 (stereo unspecified), the Potency was active: 16.4 µM. With CSc1ccc(CNC(=O)C2CCN(c3nc4ccccc4nc3C(F)(F)F)CC2)cc1 the Potency was inconclusive: 3.66 µM [inhibitor, full curve]. In the case of CC(O)(c1ccc(Cl)cc1)C(c1ccccc1)c1ccccn1 (stereo unspecified), the “activity change, negative = growth inhibition” value is reported as inactive: -9.76%. For Cn1nc(C(=O)NCc2ccccc2Cl)c2c1-c1ccccc1S(=O)(=O)C2, the Potency was inconclusive: 23.1 µM [inhibitor, partial curve] and inconclusive: 20.6 µM [inhibitor, single point]. For Cc1ccc(Cl)cc1N1CCN(c2ncnc3c2nc2n3CCCCC2)CC1, the Potency was inconclusive: 16.4 µM [inhibitor, single point]. For CCCN(C(=O)CSCc1ccc(C)cc1)c1c(N)n(Cc2ccccc2)c(=O)[nH]c1=O, the “activity change, negative = growth inhibition” value was inactive: 6.42%. With CCCCNC(=O)C1CCN(c2nc3ccccc3nc2C(F)(F)F)CC1 the Potency was active: 16.4 µM. In the case of COc1ccc(Nc2cc(C)c3cc(NC(=O)Cc4ccc(Cl)cc4)ccc3n2)cc1, the Potency is reported as inconclusive: 20.6 µM [inhibitor, single point]. With COc1ccc(CNCc2c(C(=O)O)c(C)n(Cc3ccccc3C)c2C)c(OC)c1 the Potency was inconclusive: 11.6 µM [inhibitor, partial curve, poor fit]. With CCN(CC)CCNC(=O)c1cn(CCOC)c(=O)c2c1c1ccccc1n2C the Potency was inconclusive: 29.1 µM [inhibitor, single point] and inconclusive: 32.6 µM [inhibitor, single point]. In the case of Cc1ccc(NC(=S)NC2CCCC2)cc1C, the Potency is reported as inconclusive: 29.1 µM [inhibitor, single point]. In the case of CCC(C)[C@@H](CN(N=O)[C@@H](Cc1ccccc1)CN(C)N=O)N(CCc1ccccc1)N=O (stereo partly specified), the Potency is reported as active: 16.4 µM. For N=c1c(C(=O)NCc2ccc3c(c2)OCO3)cc2c(=O)n3ccccc3nc2n1CC1CCCO1 (stereo unspecified), the Potency was inconclusive: 29.1 µM [inhibitor, single point]. With CCOC(=O)CNC(=O)CSc1nc(Cc2cccs2)nc2ccccc12 the Potency was inconclusive: 29.1 µM [inhibitor, partial curve]. For COc1ccc2c(c1)c1c(c(=O)n(-c3ccccc3C)c(=O)n1C)n2C, the “activity change, negative = growth inhibition” value was inactive: -28.8%. For COc1cc2c(cc1OC)/C(=C/C(=O)c1ccc(OC)c([N+](=O)[O-])c1)NCC2, the Potency was inconclusive: 29.1 µM [inhibitor, single point]. In the case of CC(Cn1cncn1)NC(=O)c1cc(COc2cccc(C(F)(F)F)c2)on1 (stereo unspecified), the “activity change, negative = growth inhibition” value is reported as inactive: -21.2%. For COC(=O)N1CCC2(CCCN(Cc3ccccc3)C2)CC1, the “activity change, negative = growth inhibition” value was inactive: 19.4%.
On the % scale 0 is the no-effect control and ±100 the full control effect; potency means the concentration at half of the fitted maximal effect; tags describe the fitted curve by direction and shape.
